# Source: PubChem BioAssay AID938 (National Center for Advancing Translational Sciences (NCATS), 2007)
# Values joined by “and” are separate entries in the source; they are usually repeats but may differ in a detail not shown here. Equal entries are not always repeated. About 1,800 (2.5%) of roughly 73,000 compounds were called active. Inconclusive means that the source gave no clear call. Such entries were picked first, then a sample of the others. Calls follow the shape of the dose curve; as a rule, active = well fitted activation curve with a large enough effect; inconclusive = small, poorly fitted or top-dose-only effect; inactive = no such curve, though single readings can be large or run the other way. No potency is given beside an inconclusive call; the fits are too rough. Some compounds were tested as several samples or in several runs, with calls that do not always agree.
# Experiment: qHTS Assay for Agonists of the Thyroid Stimulating Hormone Receptor: Activators of Intracellular cAMP Concentrations in Parental HEK 293; also: nearly all actives have a fitted effect of over 55% in size; as to activation: % of control where 0% means no effect
# Details: parental HEK293 CNG cAMP sensor, membrane potential fluorescence; activation: at 57.1 µM (top of the series) unless noted
# Method in brief: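 Counterscreen for endogenous-receptor signalling: CNG-channel HEK 293 cells report cAMP rise by membrane depolarization. After 60 min dye equilibration with 100 uM RO 20-1724, compounds incubated 30 min before bottom-read fluorescence at 590 nm.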
# Potency is read from the fitted curve at half-maximal effect; tags tell the direction and shape of the fitted curve.
SMILES,Potency,activation
Cc1sc2ccccc2[n+]1CCC(=O)O,"inconclusive [activator, single point]",–
CC1CCC2C(=O)OC(CN=[N+]=[N-])CN2C1c1ccc(Br)cc1 (stereo not given),active: 3.98 µM and active: 5.01 µM,–
COc1ccc(Cn2nnnc2CN2CCC(c3nc4ccccc4s3)CC2)cc1,"inconclusive [activator, single point]",–
CCCSc1nc2c(c(=O)n(C)c(=O)n2C)n1Cc1ccc(C)cc1,"inconclusive [activator, partial curve]",–
CN1CCN(C(=O)c2cnn3c(C(F)F)cc(C4CC4)nc23)CC1,inactive,–
Cc1ccc(OCC(=O)Nc2ccc(N3CCCC3)cc2)cc1C,–,inactive: -4.34% [at 11.4 µM]
CC(C)OC(=O)C1C(=O)CC(C)(O)C(C(=O)OC(C)C)C1c1cccc(O)c1 (stereo not given),"inconclusive [activator, partial curve]",–
Fc1ccc(Cn2nnnc2CN2CCc3ccccc3C2)cc1,"inconclusive [activator, partial curve]",–
CCCCNc1nc(C)nc2c1nc(-c1ccccc1)n2CCCN1CCCCC1C (stereo not given),"inconclusive [activator, full curve]",–
Cc1cc(C)nc(SCc2nnc(SCC(=O)Nc3nccs3)n2Cc2ccco2)n1,"inconclusive [activator, full curve, poor fit]",–
O=C(Nc1ccccc1F)N(CCCN1CCOCC1)Cc1cc2cc3c(cc2[nH]c1=O)OCCO3,"inconclusive [activator, single point]",–
COc1cccc(OCCCCSc2ncccn2)c1,"inconclusive [activator, partial curve]",–
CN(C)/N=N/c1nc[nH]c1C(N)=O,"inconclusive [activator, single point]",–
COc1nc(NC(C)(C)C)nc(Oc2ccc(=O)n(-c3ccccc3)n2)n1,"inconclusive [activator, single point]",–
CC1CCc2sc3nc(NCc4ccco4)n4ncnc4c3c2C1 (stereo not given),inactive,–
Cc1nc2ccccn2c1-c1nnco1,inactive,–
CN1CCCN([C@@H](c2ccccc2)c2ccc(Cl)cc2)CC1,inactive,–
C[C@H](CCC(=O)NN)[C@@H]1CC[C@@H]2[C@H]3CC[C@H]4C[C@@H](O)CC[C@@]4(C)[C@@H]3CC[C@]21C,–,inactive: 12.8% [at 11.4 µM]
CCCCOC(=O)c1ccc(N)cc1,"inconclusive [activator, single point]",–
CC(C)CN1C(=O)NC(NC(=O)c2ccco2)(C(F)(F)F)C1=O (stereo not given),"inconclusive [activator, single point]",–
COc1ccc(C(O)P(=O)(O)CCc2ccccc2)cc1 (stereo not given),"inconclusive [activator, partial curve]",–
NC(=O)NCCS[C@H]1CCCC[C@@H]1O,"inconclusive [activator, single point]",–
O=C(CCCC(=O)N(CC(=O)NC1CCCC1)Cc1ccccc1Cl)Nc1ccccn1,"inconclusive [activator, single point]",–

SMILES,Potency,activation
Cc1ccc2[nH]c(=O)c(CN(Cc3ccccc3Cl)C(=O)N3CCOCC3)cc2c1,"inconclusive [activator, partial curve]",–
O=C(Cn1cc2c(n1)CCCC2)Nc1ccccc1Br,"inconclusive [activator, single point]",–
Cc1ccc2nc3c(cc(C(=O)NCc4cccnc4)c(=N)n3C(C)C)c(=O)n2c1,inactive,–
Clc1cccc(Cl)c1Cn1cnc2c(N3CCCCCC3)ncnc21,"inconclusive [activator, partial curve]",–
Cn1c(=O)c2nc(-c3ccccc3)oc2c2ccccc21,"inconclusive [activator, partial curve]",–
CC(=O)C1=C(O)C(=O)N(Cc2ccco2)C1c1ccccc1 (stereo not given),"inconclusive [activator, single point]",–
COC(=O)c1ccc(C(=O)OC)c(NC(=O)COc2ccccc2OC)c1,"inconclusive [activator, single point]",–
CCC(C(=O)N1CCN(c2cccc(Cl)c2)CC1)c1ccccc1 (stereo not given),active: 25.1 µM,–
CCOC(=O)C1CCN(Cc2ccc(O)c3ncccc23)CC1,inactive,–
O=C(/C=C/c1ccccc1)N1CCCC1CO (stereo not given),"inconclusive [activator, single point]",–
Cc1ccccc1-n1c(=O)cc(NCC2CCCO2)[nH]c1=O (stereo not given),"inconclusive [activator, partial curve]",–
CN(CCNC(=O)c1cc2c(=O)n(C)c3ccccc3c2n1C)Cc1ccccc1,"inconclusive [activator, full curve]",–
CS(=O)(=O)c1cccc(C(=O)NCc2ccccc2)c1,inactive,–
O[C@H](COc1ccccc1)CN1CCCCC1,"inconclusive [activator, single point]",–
CN1CCN(c2ncc3nc(-c4ccccc4)c(=O)n(CCc4ccccc4)c3n2)CC1,inactive,–
O=C(N1CCN(c2ccc(F)cc2)CC1)C12CC3CC(CC(C3)C1)C2,"inconclusive [activator, single point]",–
COc1ccc(OC)c(C(=O)COC(=O)c2cc(C)oc2C)c1,"inconclusive [activator, partial curve]",–
O=C(CSc1nc2ccccc2c(=O)[nH]1)N1CCCCCC1,"inconclusive [activator, single point]",–
O=C(c1cc2ccccc2oc1=O)N(Cc1ccc2c(c1)OCO2)Cc1ccco1,"inconclusive [activator, partial curve]",–
Cc1cc(N)c2cc(NC(=O)Nc3ccc4nc(C)cc(N)c4c3)ccc2n1,–,inactive: 6.1% [at 11.4 µM]
CCC(=O)Nc1ccc(NC(=O)C23CC4CC(CC(C4)C2)C3)cn1,"inconclusive [activator, single point]",–
O=C(NCCc1ccccc1)c1nc2c(nnn2Cc2ccccc2Cl)c(=O)[nH]1,"inconclusive [activator, partial curve]",–
